Results taken from paper PMC4336329 (PLoS ONE, 2015).
About 14,000 (4.5%) of roughly 310,000 compounds showed an effect of 50% or more. Effects have a minus sign here. The list shows a part of the results.

target: human ether-à-go-go-related gene (hERG) potassium channel (human, UniProt Q12809); assay: primary screen, population patch clamp on CHO cells stably expressing hERG
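Also: peak tail current of the secondary pulse compared with the same well before compound.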

human ether-à-go-go-related gene (hERG) potassium channel, sequence (Q12809 whole entry, looked up): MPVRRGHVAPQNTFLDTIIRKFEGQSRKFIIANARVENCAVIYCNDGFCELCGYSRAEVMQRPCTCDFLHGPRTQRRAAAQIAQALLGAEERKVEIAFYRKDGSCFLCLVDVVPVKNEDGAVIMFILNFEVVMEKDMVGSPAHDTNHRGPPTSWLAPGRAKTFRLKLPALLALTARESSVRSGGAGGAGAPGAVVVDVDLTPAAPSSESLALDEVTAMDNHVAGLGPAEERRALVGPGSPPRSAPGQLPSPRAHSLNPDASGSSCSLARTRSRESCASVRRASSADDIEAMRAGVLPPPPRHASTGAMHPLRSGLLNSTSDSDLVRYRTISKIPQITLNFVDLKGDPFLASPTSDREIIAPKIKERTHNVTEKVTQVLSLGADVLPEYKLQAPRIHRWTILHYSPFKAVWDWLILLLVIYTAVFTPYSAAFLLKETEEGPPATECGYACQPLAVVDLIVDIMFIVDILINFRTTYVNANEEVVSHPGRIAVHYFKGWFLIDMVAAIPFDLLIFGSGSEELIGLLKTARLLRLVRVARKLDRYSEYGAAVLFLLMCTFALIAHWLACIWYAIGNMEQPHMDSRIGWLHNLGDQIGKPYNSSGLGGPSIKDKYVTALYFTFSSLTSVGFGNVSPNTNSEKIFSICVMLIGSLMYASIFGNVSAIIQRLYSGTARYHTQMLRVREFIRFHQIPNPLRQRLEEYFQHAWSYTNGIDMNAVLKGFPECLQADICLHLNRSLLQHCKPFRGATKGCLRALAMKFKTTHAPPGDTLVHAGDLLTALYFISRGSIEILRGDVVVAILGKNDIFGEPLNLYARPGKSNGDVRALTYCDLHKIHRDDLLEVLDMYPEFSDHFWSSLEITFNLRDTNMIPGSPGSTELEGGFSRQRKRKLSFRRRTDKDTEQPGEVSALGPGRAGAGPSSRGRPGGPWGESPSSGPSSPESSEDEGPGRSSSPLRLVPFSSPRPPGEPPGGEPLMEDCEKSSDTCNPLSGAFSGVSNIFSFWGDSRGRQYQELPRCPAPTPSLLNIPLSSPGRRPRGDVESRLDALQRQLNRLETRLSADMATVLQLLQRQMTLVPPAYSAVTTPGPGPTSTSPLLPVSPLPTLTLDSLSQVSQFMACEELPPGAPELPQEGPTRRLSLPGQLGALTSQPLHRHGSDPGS

| Compound | hERG current change (%, negative = inhibition) at 10uM [%] |
| --- | --- |
| Cc1ccc(C(=O)OCC(=O)Nc2ccccc2)cc1S(=O)(=O)N1CCCCC1 | 1.85 |
| COCCCN(C(C)=O)c1nc(-c2ccc(OC)cc2)cs1 | -16.5 |
| CCn1c(=O)n(CC)c2cc(S(=O)(=O)N3CCCCC3)c(C)cc21 | -0.0962 |
| Oc1ccc(/C=C/c2ccnc3ccccc23)cc1 | 8.68 |
| COc1ccc(S(=O)(=O)N2CCC(C(=O)NC3CC3)CC2)cc1 | 9.61 |
| CC(C)(C)c1ccc(/C=C/C(=O)O)s1 | 10.2 |
| N#CC(=C=[N-])c1nc2ccccc2nc1-[n+]1cccc(NC(=O)c2ccc(F)cc2)c1 | 17.4 |
| O=C(O)C1C2CCC(O2)C1C(=O)Nc1ccc(Br)cc1F (centres unmarked) | 17.3 |
| CC(=O)Nc1ccc(S(=O)(=O)N2CN(c3ccc(C)cc3)c3nc4ccccc4nc32)cc1 | 6.22 |
| COc1cccc(NC(=O)C(NCC(C)(C)CN(C)C)c2ccccc2)c1.O=C(O)C(=O)O (centres unmarked) | -48.4 |
| Cc1ccc(C(=O)N2CCN(c3ccccn3)CC2)cc1C | -5.19 |
| Clc1ccc2oc(SCc3cccnc3)nc2c1 | -16.2 |
| C=CCn1cc(-c2ccc(Cl)cc2)cc(C#N)c1=O | -7.98 |
| Cc1ccc(S(=O)(=O)N(C)CC(O)Cn2c3ccccc3c3ccccc32)cc1 (centres unmarked) | 17.5 |
| CCc1ccc(N2CSC3=C(C#N)C(c4cccs4)CC(=O)N3C2)cc1 (centres unmarked) | -3 |
| CN(CC(=O)Nc1ccccc1Cl)C(=O)c1ccc(-c2cccc(C(F)(F)F)c2)o1 | -10.2 |
| O=C(COc1ccc(/C=N/NC(=O)c2ccncc2)cc1)Nc1ccc([N+](=O)[O-])cc1 | -9.27 |
| CCN(CC(=O)NCc1cccs1)C(=O)COc1cccc(C(F)(F)F)c1 | -38.2 |
| CCS(=O)(=O)N1CCN(S(=O)(=O)c2ccc(F)cc2)CC1 | -18.4 |
| COc1ccccc1N1CCN(CCCn2c(=S)[nH]c3ccccc3c2=O)CC1 | -61.6 |
| Cc1ccc(N2CCN(C(=S)Nc3ccc(Cl)cc3)CC2)cc1 | 20.4 |
| O=[N+]([O-])/C(C(Cl)=C(Cl)Cl)=C(/NC1CC1)Sc1ccccc1 | 7.59 |

| Compound | hERG current change (%, negative = inhibition) at 10uM [%] |
| --- | --- |
| Clc1ccc(-c2nnc(CSc3nnc(-c4cccs4)o3)o2)cc1 | -4.24 |
| CCN1CCN(C(c2cccs2)C(C)NC(=S)Nc2cc(C)ccc2C)CC1 (centres unmarked) | -68.5 |
| CC1CCCCN1Cc1c[nH]c2ccccc12 (centres unmarked) | -8.88 |
| CCc1ccc(NS(=O)(=O)c2ccc3[nH]c(=O)[nH]c3c2)cc1 | 12.1 |
| COc1cccc(CNS(=O)(=O)/C=C/c2ccc(OC)c(OC)c2)c1 | 3.45 |
| CCCc1c(NC(=O)Nc2ccc(Cl)cc2Cl)cnn1-c1ccccc1 | 18.6 |
| COc1cccc(CN2CCNC(=O)C2CC(=O)N(C)C2CCCCC2)c1OC (centres unmarked) | 14.1 |
| CC(C)N=C1SCC(C)(/C=N/O)S1 (centres unmarked) | -9.68 |
| CC1=NNC(=O)C1CCC(=O)N/N=C/c1ccc(Cl)cc1Cl (centres unmarked) | 6.87 |
| C=C(C)Cn1c(N)cc(=O)nc1SCC(=O)Nc1cccc(C(F)(F)F)c1 | 11.9 |
| CCNC(=O)Nc1ccc(-n2nc(C)c(C(=O)OCC)c2C)nc1 | 20.7 |
| CCCC(CCC)n1[nH]c(=O)c2c(C)cc(C)nc21 | 1.88 |
| Cc1cc(NC(=O)COC(=O)C(Cc2ccccc2)NC(=O)c2ccco2)no1 (centres unmarked) | 3.3 |
| CCCCOc1c(Br)cc(/C=N/O)cc1OCC | 7.18 |
| O=S(=O)(c1ccc2ccccc2c1)N(CC(O)COCc1ccco1)c1ccccc1 (centres unmarked) | -26 |
| O=C(NNC(=O)C1CCN(S(=O)(=O)c2ccccc2)CC1)c1ccccc1O | -29.6 |
| Cn1ccsc1=NC(=O)c1ccc(=O)[nH]c1 | 11.9 |
| O=C(O)c1sccc1Oc1ccc(NS(=O)(=O)c2cccc(F)c2)cc1 | 18.4 |
| O=C(CCc1ccc(S(=O)(=O)N2CCOCC2)cc1)NCCc1ccccn1 | -5.77 |
| COc1ccc(C2C3=C(CC(C)(C)CC3=O)Oc3ncn(Cc4ccccc4)c(=N)c32)cc1 (centres unmarked) | -55.5 |
| CN1CC(c2ccccc2)Oc2ccccc2C1=S (centres unmarked) | -0.674 |
| S=c1nc(-c2ccccc2)[nH]c2ccccc12 | 21.6 |
